The record followed here is paper PMC9870916.

Protein sequences, listed by entry. Tags and fused reporters are not part of them. Residues count along the entry.
UniProt P30405, residues 30-207: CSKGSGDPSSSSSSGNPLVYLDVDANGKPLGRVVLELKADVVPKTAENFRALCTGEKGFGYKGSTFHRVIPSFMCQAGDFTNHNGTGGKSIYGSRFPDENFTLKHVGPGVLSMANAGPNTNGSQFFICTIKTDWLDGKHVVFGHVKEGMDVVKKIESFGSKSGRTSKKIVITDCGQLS

Results are given in words; binding and its absence hold for the method and conditions named. In cells and extracts the contact can be indirect. Some binding calls cover weakened binding; strength is not graded here. Where a sequence is shown, tags or fusion partners need not be part of it.

For this assay, the target named is T1, ATP synthase oligomycin sensitivity conferring protein (OSCP) (human (endogenous in HeLa)) (UniProt P48047).
T1 sequence: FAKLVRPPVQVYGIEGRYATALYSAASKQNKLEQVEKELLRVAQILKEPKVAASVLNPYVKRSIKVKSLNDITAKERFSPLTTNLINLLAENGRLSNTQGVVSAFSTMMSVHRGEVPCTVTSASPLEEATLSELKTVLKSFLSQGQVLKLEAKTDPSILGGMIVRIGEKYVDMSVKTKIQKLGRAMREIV
In words: proximity ligation; Duolink In Situ Red; CTR and IF1 KO HeLa cells fixed with 2% paraformaldehyde, permeabilized with 0.15% Triton X-100; pairs of mouse and rabbit primary antibodies; red dots per nucleus.

Consider “cyclophilin D (CyPD) (from UniProt P30405 30-207)”, for which the binding entry is “binds”.
